# Data as given in PubChem BioAssay (NCI).
# The source holds several records for some structures; these can differ, active in one and inactive in another.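 In brief: 96-well plates, 48 h treatment, single concentration, percent growth endpoint.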 Not every entry of the source has a single result; some have several. The list is limited to them. The calls were made as follows: active = growth percent below 10; inactive = the rest. The source may hold further records. These are repeated runs of one drug, at its own concentration, as given; each value is one run. Additions like (4×) count equal records among those shown.
# System: HL-60(TB) leukemia
# Experiment: NCI-60 one-dose screen, 48 h (100 = growth as untreated, 0 = no growth, -100 = all killed)
# Conditions: 0.25 µM
structure (smiles),measurement,setting,value
COc1cccc2c1C(=O)c1c(O)c3c(c(O)c1C2=O)C[C@@](O)(C(=O)CO)C[C@@H]3OC1CC(N)C(O)C(C)O1 (stereo partly drawn),growth,runs of 2006,active: 7.91% and inactive: 10.4%
same,growth,runs of 2007,"inactive: 14.4, 12.3, 21, 32.8, 12.2, 44, 43, 33.2, 46.6, 18.6, 25.8, 52.3, 50.6, 32.4, 58.7, 72.6, 15.2, 10.6, 27.7, 16.8, 32.6, 34.3, 52.1, 107, 85.4, 63.6, 51.8, 18.9, 41.2, 64.2, 25.2, 37.9% and active: 8.89, 0.364, 4.53, -0.393, 4.69, 6.81, 9.43, -4.04, 1.75, 5.56, -4.68%"
same,growth,runs of 2008,"inactive: 47.3 (2×), 63.9, 65.7, 31.9, 40.7, 23.2, 88.4, 40, 29.4, 11.1, 64.6, 43.5, 51.1, 51.8, 31.6, 42.3, 11.7 (2×), 49.6, 32.6, 44.8, 13.8 (2×), 14.1, 104, 10.9, 12.4, 24.2, 28.6, 19.3, 46.7, 38, 21.7, 27.9, 18.3, 35.2, 39.9, 55.8, 39.3, 15.9, 17.9, 20.3, 11, 14.3% and active: -13.7, 5.75, 6.54, 7.42, -26.3, 7.34, -7.71, -13.5, 4.89, -16.1, -1.97, 3.16, 2.23%"
same,growth,runs of 2009,"inactive: 78.4, 65, 24.2, 38.7, 17.6, 39.7, 78.7, 65.1, 38, 21.9, 19.3, 66.5, 68.8, 56.6, 15.6, 22.2 (2×), 28.5, 23, 36.1, 42.2, 45.6, 37 (2×), 27, 18.2, 38.6, 33.4 (2×), 23.3, 42.8, 32.4, 45.8, 57.9, 53.1, 31.9, 39.4, 48.7, 58.6, 61.6 (2×), 20.7, 58.2, 54.9, 65.2, 48.6, 64.4, 51.7, 37.8, 36.8, 29.1, 31.7, 49.2, 31.2, 38.9, 24.6, 57.4, 45.9, 46.2, 50, 44.9, 32.9, 44, 49.4% and active: -1.19%, 7%"
same,growth,runs of 2010,"inactive: 50, 46.8 (2×), 48.1, 42.3, 48.9, 49.8, 39.2 (2×), 40, 33.9, 38.5, 35.9, 33.7, 30.4 (2×), 41.4, 45.6, 28.7, 22.2, 27.3, 15.7, 34.9, 54.4, 41.9, 33.1, 29.5, 28.4, 38, 33.8, 38.6, 76.6, 26, 57.7, 39.5, 34.2, 40.6, 36.9, 29.4, 20.2, 41, 47.3, 41.8, 37.6, 35.1, 47.5, 46.2, 38.8, 25.2, 39.4%"
same,growth,runs of 2011,"inactive: 42, 23.6, 33.5, 23.9 (2×), 34.7 (2×), 36.4, 41.6, 23.8, 31.5, 54.7, 18.1, 34.6, 40.1, 50.4, 66.7, 73.4, 65.2, 52.2 (2×), 61.2 (2×), 33.2, 57.9, 59, 56.1, 63.4, 58.8, 72.7, 68.9, 25.8, 31.6, 27.3, 24.9, 30.9, 20.7, 35.7, 41.2, 42.1 (2×), 17, 31.8, 24, 26.4, 24.8, 39.6, 23.7, 35.2, 36.8, 38.8, 20.3, 43.2, 53.1, 50.8, 38.2, 38.5, 27.6%"
same,growth,runs of 2012,"inactive: 53.3, 36.8, 38.1 (2×), 29.9, 43.9, 41.1, 32.6, 34.7, 28.4, 31.5, 29.6, 47.2, 29.2, 44.7, 50.2, 45.2, 28.3, 25, 17.5, 18.9, 28.6, 25.9, 41.6, 44, 39.4, 32.7 (2×), 27.7, 24.5, 30.2, 18.4, 24.3, 25.8, 55.1, 35.6, 28.5, 38.2, 21.8, 34.1, 35.5, 46.4, 27.8, 43.8, 42.3 (2×), 50.9, 46.6, 51.3, 43, 40.9, 32.4, 54.7, 28.9, 30.4, 18.3, 13.6, 42.2, 33.2, 20.3, 23.8, 15.7, 33.5, 40.7, 25.4% and active: 2.59%"
same,growth,runs of 2013,"inactive: 19.7, 19.6, 14.9, 44.4, 51.1 (2×), 40.1 (2×), 19.3, 20.5, 24.8, 29.8, 36.5 (2×), 11, 29.5, 21.6, 30.2, 27.5, 37.5, 30.8, 28.3 (3×), 51.3, 38.4, 42, 60.9, 38.1, 34.9, 46 (2×), 66.1, 49.3, 58.2, 46.3, 41.9, 54.1, 46.6, 47.2, 40.2, 38.7, 41.8, 58.9, 47.6, 29.2, 21.8, 50.9, 32.6, 18.6, 50.2, 45.2, 57.1, 32.2, 31, 39.1, 28.6, 59.8, 62.5, 30.9, 40, 43.8, 32.8, 66.4, 38.5, 64.3, 37.3, 77.4%"
same,growth,runs of 2014,"inactive: 27.8, 17.3, 30, 43.4 (2×), 44.2, 41.3, 44.8, 29.8 (3×), 45.1, 29.3, 51.4, 38.9, 29.7, 52, 29.6 (2×), 40.8, 24.5, 50, 33.7, 33.8 (3×), 41.1, 39.5, 36.5, 36.6, 45, 65.7, 63.1, 36.9 (2×), 32.3, 37.5, 35, 32, 28.7, 32.7, 31.1, 35.3, 34.5, 28.4, 34.9, 32.4, 39.1, 46.7, 39.2, 27.7, 28.5, 48.7, 43, 18, 23.6, 31.7, 27.9 (2×), 40.4 (2×), 54.3, 61, 48.4, 57.9, 35.2, 55, 49.9, 40.6, 42.3 (2×), 24.6, 58, 62.2, 50.1, 38.8%"
same,growth,runs of 2015,"inactive: 37.3, 41.3, 26.4, 32.5, 32.9, 29.1, 30.5 (2×), 37.5 (2×), 36.9, 29.4, 35.5 (2×), 54.9, 43.6 (2×), 22.5, 25.2, 38.2, 45.2, 29.9 (2×), 47.4, 36.3, 50.5, 41.4, 52.8, 34.6, 32.4, 29.3, 35.1, 42.9, 28.9, 25.4, 41, 39.9, 46.2 (2×), 56, 31, 31.9 (2×), 39.3, 48.8, 42.3 (2×), 42.2, 42, 38.8, 42.8, 47, 71.5, 48.6, 29, 25.9, 29.8, 35, 49.6, 31.7, 31.5, 30, 38.3, 40.3, 44.2, 55.1, 75.1, 47.5, 32.6 (2×), 25, 27.3, 52.7, 66.2, 75.5, 78.9, 27.2, 31.4, 41.5%"
same,growth,runs of 2016,"inactive: 38.8, 31.7 (3×), 33.4, 36.9, 37.7 (2×), 39.5, 30.6, 26, 31.6 (2×), 35.1, 23.6, 56, 49.4, 33.1, 37.5 (2×), 40.9, 39.1, 44.3, 40.8 (2×), 30.1, 38.7 (2×), 39.6 (2×), 40.1, 44.8, 27.9, 33.8, 42.6, 29.5 (2×), 42.8, 48.5, 52.8, 56.7, 40.2, 45.6 (2×), 32, 34.7, 39.7, 38.3, 29.2, 29.9, 28.7, 37.4, 35.2, 29.3, 24.2, 41.3, 36.2, 27.6, 46.8, 42.2, 49.7 (3×), 45.1, 47.4, 39.3, 42.9, 46.6, 58.9, 25.3, 18.8, 28.5, 25.5, 29.1, 30.3, 13.4, 12.3, 13.6, 37.6, 50.3, 41.5%"
same,growth,runs of 2017,"inactive: 28.7 (2×), 29.8 (2×), 24.5, 28.9 (2×), 21.4, 25.6 (2×), 21.9 (2×), 22.3 (2×), 22.2, 20.2, 27.2, 29.4 (2×), 36, 33.5, 35.6, 42.7, 35.5 (2×), 32, 25.4, 34.6, 23.8 (2×), 29.2, 27.4, 32.4 (2×), 40.8, 50.2, 19.2, 24.1, 36.2, 35.7, 25.3, 25.9, 24.9, 17.5, 37, 17, 23.1, 28.8, 24.2, 30.4, 22.9, 29.3, 17.9, 23.7, 27, 33.4, 25.2, 20.7, 46.9, 43, 12.7, 12.8, 31.2, 18, 13.9%"
same,growth,runs of 2018,"inactive: 30.9 (3×), 35 (2×), 32.6 (2×), 34.6, 28.3 (2×), 31, 23.4, 29.3, 30.1, 29.1, 31.1, 33.5, 19.5 (2×), 17.1, 10.9, 13.4, 17.9, 28.4, 24.9, 25.2, 38.5, 32.8, 23.9, 24.2, 25.9, 29.4, 24.5, 30.6, 22.3, 32.9, 24.8, 44.8, 32.3, 23.1, 35.7, 26.8, 29.8, 17.6, 38.7, 40.4, 37.6, 42.9, 37, 44.6, 18.4% and active: 1.14%"
